{"source": "the supplement of paper PMC10126150", "note": "Sequences with one replicate were seen in a single cluster, so their values are uncertain.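 Further: ATP exposure 15 min at 22 °C before imaging.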"}
{"system": "ATP", "test": "switch fluorescence ratio, 500 uM ATP over buffer (Cy3 cluster intensity, sum of 5 cycles each) (fold (ratio)); higher = stronger signal-on switching upon ATP binding; sequences stand for … in TCGTCGGCAGCGTCAGATGTGTATAAGAGACAGTTTTTTTTTTTTTTTTTTTTTTTTT…TC", "conditions": "aptamer strand: ATP DNA aptamer (quencher-CACCTGGGGGAGTATTGCGGAGGAAGG + anchor), 100 nM annealed; ATP concentration: 500 uM; one replicate", "outline": "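Cy3-labelled switching-strand clusters on a modified Illumina MiSeq flow-cell were annealed to 100 nM quencher-labelled ATP aptamer, imaged in selection buffer, then imaged after 15 min with 500 uM ATP at 22 °C. Five buffer/ATP cycles ran, with NaOH stripping and re-annealing between them. The fluorescence ratio is summed target-cycle over summed buffer-cycle Cy3 intensity per cluster, averaged per switch-domain sequence. Clusters outside 100-1000 RFU were excluded.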"}
{"sequence": "GCAAGTGCTG", "switch fluorescence ratio": 1.01}
{"sequence": "GCAATAAATT", "switch fluorescence ratio": 0.947}
{"sequence": "GCAATATCAA", "switch fluorescence ratio": 1.25}
{"sequence": "GCAATCACTT", "switch fluorescence ratio": 1.35}
{"sequence": "GCAATCCCAT", "switch fluorescence ratio": 1.07}
{"sequence": "GCAATCTCCT", "switch fluorescence ratio": 4.36}
{"sequence": "GCAATGGGTT", "switch fluorescence ratio": 1.02}
{"sequence": "GCAATTCGGG", "switch fluorescence ratio": 1.38}
{"sequence": "GCAATTGTGA", "switch fluorescence ratio": 0.987}
{"sequence": "GCAATTTCTG", "switch fluorescence ratio": 1.02}
{"sequence": "GCACAAGGCG", "switch fluorescence ratio": 1.07}
{"sequence": "GCACAATTTG", "switch fluorescence ratio": 0.977}
{"sequence": "GCACACCAAG", "switch fluorescence ratio": 1.11}
{"sequence": "GCACAGATCA", "switch fluorescence ratio": 1.04}
{"sequence": "GCACATATAT", "switch fluorescence ratio": 1.1}
{"sequence": "GCACATCCTA", "switch fluorescence ratio": 1.12}
{"sequence": "GCACATTCCA", "switch fluorescence ratio": 1.01}
{"sequence": "GCACCAAGTA", "switch fluorescence ratio": 1.1}
{"sequence": "GCACCAGCTG", "switch fluorescence ratio": 1.06}
{"sequence": "GCACCCGCCC", "switch fluorescence ratio": 1.24}
{"sequence": "GCACCCTCTA", "switch fluorescence ratio": 1.02}
{"sequence": "GCACGAACAC", "switch fluorescence ratio": 1.4}
{"sequence": "GCACGATCGG", "switch fluorescence ratio": 1.05}
{"sequence": "GCACGATCGT", "switch fluorescence ratio": 0.97}
{"sequence": "GCACGGAATC", "switch fluorescence ratio": 1.56}
{"sequence": "GCACGGGTTT", "switch fluorescence ratio": 1.1}
{"sequence": "GCACGGTCCA", "switch fluorescence ratio": 1.06}
{"sequence": "GCACTAGGTC", "switch fluorescence ratio": 1.02}
{"sequence": "GCACTATAGT", "switch fluorescence ratio": 1.06}
{"sequence": "GCACTCAATG", "switch fluorescence ratio": 0.988}
{"sequence": "GCACTCATCG", "switch fluorescence ratio": 1}
{"sequence": "GCACTCTGAT", "switch fluorescence ratio": 1.05}
{"sequence": "GCAGAAAAG", "switch fluorescence ratio": 1.1}
{"sequence": "GCAGACAGGC", "switch fluorescence ratio": 0.991}
{"sequence": "GCAGACGAG", "switch fluorescence ratio": 1.05}
{"sequence": "GCAGAGAGAT", "switch fluorescence ratio": 0.987}
{"sequence": "GCAGAGGTCT", "switch fluorescence ratio": 1.03}
{"sequence": "GCAGATGAGT", "switch fluorescence ratio": 0.999}
{"sequence": "GCAGATGGTC", "switch fluorescence ratio": 1.06}
{"sequence": "GCAGCACTGT", "switch fluorescence ratio": 1.09}
{"sequence": "GCAGCAGGTG", "switch fluorescence ratio": 4.45}
{"sequence": "GCAGCCTGAA", "switch fluorescence ratio": 1.01}
{"sequence": "GCAGCGTCGG", "switch fluorescence ratio": 1.05}
{"sequence": "GCAGCTAAGG", "switch fluorescence ratio": 1.08}
{"sequence": "GCAGCTGCAC", "switch fluorescence ratio": 1.04}
{"sequence": "GCAGCTGCTC", "switch fluorescence ratio": 0.978}
{"sequence": "GCAGCTTGCG", "switch fluorescence ratio": 1.04}
{"sequence": "GCAGGACTGA", "switch fluorescence ratio": 1.01}
{"sequence": "GCAGGCATTG", "switch fluorescence ratio": 0.98}
{"sequence": "GCAGGCTTG", "switch fluorescence ratio": 1}
{"sequence": "GCAGGGACCG", "switch fluorescence ratio": 1.01}
{"sequence": "GCAGGGAGGC", "switch fluorescence ratio": 1.09}
{"sequence": "GCAGGGCATC", "switch fluorescence ratio": 0.992}
{"sequence": "GCAGGGGCGG", "switch fluorescence ratio": 1.29}
{"sequence": "GCAGGTGTCC", "switch fluorescence ratio": 1.34}
{"sequence": "GCAGTAGGTC", "switch fluorescence ratio": 1.01}
{"sequence": "GCAGTCATTC", "switch fluorescence ratio": 1.03}
{"sequence": "GCAGTCGGTC", "switch fluorescence ratio": 1.03}
{"sequence": "GCAGTGAGGT", "switch fluorescence ratio": 0.979}
{"sequence": "GCAGTTATTA", "switch fluorescence ratio": 0.985}
{"sequence": "GCAGTTGCTT", "switch fluorescence ratio": 1.01}
{"sequence": "GCAGTTTACC", "switch fluorescence ratio": 1.04}
{"sequence": "GCATAAAAAA", "switch fluorescence ratio": 0.97}
{"sequence": "GCATAAAACC", "switch fluorescence ratio": 1.03}
{"sequence": "GCATAAAGTT", "switch fluorescence ratio": 0.97}
{"sequence": "GCATAATACG", "switch fluorescence ratio": 1.31}
{"sequence": "GCATAGCGTT", "switch fluorescence ratio": 0.995}
{"sequence": "GCATAGGAGC", "switch fluorescence ratio": 0.963}
{"sequence": "GCATAGTGGG", "switch fluorescence ratio": 0.968}
{"sequence": "GCATATAGG", "switch fluorescence ratio": 1.02}
{"sequence": "GCATATGGGT", "switch fluorescence ratio": 1.02}
{"sequence": "GCATCAACTG", "switch fluorescence ratio": 0.931}
{"sequence": "GCATCACTTG", "switch fluorescence ratio": 1.01}
{"sequence": "GCATCATAGT", "switch fluorescence ratio": 1.04}
{"sequence": "GCATCGAACC", "switch fluorescence ratio": 1.16}
{"sequence": "GCATCGGCGC", "switch fluorescence ratio": 1.01}
{"sequence": "GCATCTAGGA", "switch fluorescence ratio": 0.965}
{"sequence": "GCATCTCTGA", "switch fluorescence ratio": 0.964}
{"sequence": "GCATCTTGTT", "switch fluorescence ratio": 0.944}
{"sequence": "GCATGAGCTA", "switch fluorescence ratio": 1.01}
{"sequence": "GCATGATGTG", "switch fluorescence ratio": 0.969}
{"sequence": "GCATGATTA", "switch fluorescence ratio": 0.993}
{"sequence": "GCATGCATCT", "switch fluorescence ratio": 0.992}
{"sequence": "GCATGCTCGG", "switch fluorescence ratio": 1}
{"sequence": "GCATGGAAAA", "switch fluorescence ratio": 0.947}
{"sequence": "GCATGGGGA", "switch fluorescence ratio": 1.05}
{"sequence": "GCATGGTTAC", "switch fluorescence ratio": 1.14}
{"sequence": "GCATGTGCTT", "switch fluorescence ratio": 1.02}
{"sequence": "GCATGTTACG", "switch fluorescence ratio": 1.04}
{"sequence": "GCATGTTGTT", "switch fluorescence ratio": 0.973}
{"sequence": "GCATTACATC", "switch fluorescence ratio": 1.11}
{"sequence": "GCATTATAAT", "switch fluorescence ratio": 1.03}
{"sequence": "GCATTCCCGT", "switch fluorescence ratio": 1.08}
{"sequence": "GCATTCGAAA", "switch fluorescence ratio": 1.03}
{"sequence": "GCATTCTAG", "switch fluorescence ratio": 1.05}
{"sequence": "GCATTGAAAC", "switch fluorescence ratio": 0.945}
{"sequence": "GCATTGATAG", "switch fluorescence ratio": 0.98}
{"sequence": "GCATTGCGAA", "switch fluorescence ratio": 0.951}
{"sequence": "GCATTTCGTT", "switch fluorescence ratio": 1.02}
{"sequence": "GCATTTGTTT", "switch fluorescence ratio": 0.978}
{"sequence": "GCATTTTGAT", "switch fluorescence ratio": 0.996}
